Results as given in paper PMC5892938.
Some of the results follow. At the low end of the ranking the order means little.

biological target: GST-SBP-SLBP (stem-loop binding protein) (UniProt Q14493); test: targeted RNA Bind-n-Seq; details: RBNS binding buffer: 25 mM Tris pH 7.5, 150 mM KCl, 3 mM MgCl2, 0.1% Tween, 0.5 mg/mL BSA, 1 mM DTT; 27 nM protein, 750 pM RNA pool; temperature not stated; high values mean tight binding;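 further: DESeq read counts versus GST-SBP nonspecific binding control pulldown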

Sequence	binding signal (log2 fold change)
GGUCACGUCUCAAUCAACUCAUUUCCAGGAGUUUCCUCCUGUAUAUUCAACAGCUCGCAGUCAAG	-0.0166
GGUCACGUCUCAAUCAACUCUUCGCCCAGGGAAACCCCUGGUUAUUUCAACAGCUCGCAGUCAAG	-0.375
GGUCACGUCUCAAUCAACUCGUCUUCAGGAGUUUUCUCCUGCAAUCUCAACAGCUCGCAGUCAAG	0.0176
GGUCACGUCUCAAUCAACUCCAUAGAGGGGGGGAAAACCCCUUUACCCUCCAACUCAACAGCUCGCAGUCAAG	-0.386
GGUCACGUCUCAAUCAACUCUUCCCCCAGGGAAACCCCUGGCUUACUCAACAGCUCGCAGUCAAG	0.207
GGUCACGUCUCAAUCAACUCAAAAGAGGGGGGGAAAACCCCUUUACCCUCAACAUCAACAGCUCGCAGUCAAG	-0.189
GGUCACGUCUCAAUCAACUCAAUCCCCAGGGAAAGCCCUGGUUUAUUCAACAGCUCGCAGUCAAG	0.101
GGUCACGUCUCAAUCAACUCUUUCUCCAGGGAAAUCCCUGGUUUAUUCAACAGCUCGCAGUCAAG	0.135
GGUCACGUCUCAAUCAACUCUUCUCCCAGGGAAACCCCUGGCUAUUUCAACAGCUCGCAGUCAAG	0.186
GGUCACGUCUCAAUCAACUCAGUCCCAGGAGUUUACUCCUGCAUUUUCAACAGCUCGCAGUCAAG	-0.151
GGUCACGUCUCAAUCAACUCUUCCCCCAGGGAAAUCCCUGGUAUACUCAACAGCUCGCAGUCAAG	0.106
GGUCACGUCUCAAUCAACUCUACUCCAGGAGUUUUCUCCUGUUAUGUCAACAGCUCGCAGUCAAG	0.0811
GGUCACGUCUCAAUCAACUCAACUUCAGGAGUUUUCUCCUGUUUAUUCAACAGCUCGCAGUCAAG	-0.00173
GGUCACGUCUCAAUCAACUCAUCGUCAGGAGUUUUCUCCUGCUAACUCAACAGCUCGCAGUCAAG	0.0602
GGUCACGUCUCAAUCAACUCUAUUUCAGGAGUUUCCUCCUGCUUUUUCAACAGCUCGCAGUCAAG	-0.0774
GGUCACGUCUCAAUCAACUCCUUAGAGGGGGGGAAAACCCCUUUACCCUCGUCCUCAACAGCUCGCAGUCAAG	0.198
GGUCACGUCUCAAUCAACUCCUCAGAGGGGGGGAAAACCCCUUUACCCUCAUUUUCAACAGCUCGCAGUCAAG	-0.0139
GGUCACGUCUCAAUCAACUCUACUCCCAGGGAAAACCCUGGCAUUCUCAACAGCUCGCAGUCAAG	-0.172
GGUCACGUCUCAAUCAACUCAUGUCCAGGAGUUUACUCCUGUUAAUUCAACAGCUCGCAGUCAAG	-0.155
GGUCACGUCUCAAUCAACUCUUUUCCCAGGGAAAUCCCUGGUAAUCUCAACAGCUCGCAGUCAAG	0.087
GGUCACGUCUCAAUCAACUCAAUUUCCAGGGAAAACCCUGGCUAACUCAACAGCUCGCAGUCAAG	0.185
GGUCACGUCUCAAUCAACUCUUUCUCCAGGGAAAGCCCUGGCAUUUUCAACAGCUCGCAGUCAAG	-0.00434
GGUCACGUCUCAAUCAACUCUUCGUCAGGAGUUUACUCCUGUAUUCUCAACAGCUCGCAGUCAAG	-0.0507
GGUCACGUCUCAAUCAACUCUUUUCCCAGGGAAACCCCUGGUUUUUUCAACAGCUCGCAGUCAAG	-0.0744
GGUCACGUCUCAAUCAACUCAUUCUCCAGGGAAACCCCUGGCAAUUUCAACAGCUCGCAGUCAAG	-0.159

Sequence	binding signal (log2 fold change)
GGUCACGUCUCAAUCAACUCUUCUCCAGGAGUUUCCUCCUGCUAUUUCAACAGCUCGCAGUCAAG	0.068
GGUCACGUCUCAAUCAACUCUUCCUCCAGGGAAAUCCCUGGCUAUGUCAACAGCUCGCAGUCAAG	0.103
GGUCACGUCUCAAUCAACUCUAUUCCCAGGGAAAUCCCUGGCUAACUCAACAGCUCGCAGUCAAG	0.0585
GGUCACGUCUCAAUCAACUCAUUAGAGGGGGGGAAAACCCCUUUACCCUCCGUAUCAACAGCUCGCAGUCAAG	-0.394
GGUCACGUCUCAAUCAACUCAAUUUCCAGGGAAAACCCUGGUUUUUUCAACAGCUCGCAGUCAAG	-0.119
GGUCACGUCUCAAUCAACUCCAUAGAGGGGGGGAAAACCCCUUUGCCCUCAAAUUCAACAGCUCGCAGUCAAG	-0.0579
GGUCACGUCUCAAUCAACUCUAUGUCAGGAGUUUACUCCUGCUUAUUCAACAGCUCGCAGUCAAG	-0.0361
GGUCACGUCUCAAUCAACUCUACUCCCAGGGAAAUCCCUGGCAUUCUCAACAGCUCGCAGUCAAG	0.116
GGUCACGUCUCAAUCAACUCAUUCUCCAGGGAAAUCCCUGGCAAACUCAACAGCUCGCAGUCAAG	-0.271
GGUCACGUCUCAAUCAACUCAAUCCCAGGAGUUUCCUCCUGUAAAUUCAACAGCUCGCAGUCAAG	-0.0982
GGUCACGUCUCAAUCAACUCUUCUCCAGGAGUUUCCUCCUGUUAUCUCAACAGCUCGCAGUCAAG	-0.105
GGUCACGUCUCAAUCAACUCAAUUCCCAGGGAAAACCCUGGCAUACUCAACAGCUCGCAGUCAAG	0.0832
GGUCACGUCUCAAUCAACUCUACUUCAGGAGUUUACUCCUGUUUUUUCAACAGCUCGCAGUCAAG	-0.283
GGUCACGUCUCAAUCAACUCCUAAGAGGGGGGGAAAACCCCUUUGCCCUCAAAAUCAACAGCUCGCAGUCAAG	-0.5
GGUCACGUCUCAAUCAACUCAGUCUCAGGAGUUUACUCCUGCAAUCUCAACAGCUCGCAGUCAAG	-0.0856
GGUCACGUCUCAAUCAACUCAUCUCCCAGGGAAAUCCCUGGCUAUCUCAACAGCUCGCAGUCAAG	0.114
GGUCACGUCUCAAUCAACUCAAUCUCAGGAGUUUACUCCUGCAAUUUCAACAGCUCGCAGUCAAG	-0.00556
GGUCACGUCUCAAUCAACUCUAGUCCAGGAGUUUUCUCCUGCAAUUUCAACAGCUCGCAGUCAAG	0.0136
GGUCACGUCUCAAUCAACUCUUUAGAGGGGGGGAAAACCCCUUUGCCCUCGUAUUCAACAGCUCGCAGUCAAG	-0.736
GGUCACGUCUCAAUCAACUCUUCCCCCAGGGAAAGCCCUGGCAAACUCAACAGCUCGCAGUCAAG	-0.262
GGUCACGUCUCAAUCAACUCAUAAGAGGGGGGGAAAACCCCUUUGCCCUCAAUUUCAACAGCUCGCAGUCAAG	-0.424
GGUCACGUCUCAAUCAACUCACAAGAGGGGGGGAAAACCCCUUUACCCUCGAAUUCAACAGCUCGCAGUCAAG	-0.471
GGUCACGUCUCAAUCAACUCAGUUCCAGGAGUUUACUCCUGCAUUCUCAACAGCUCGCAGUCAAG	0.254
GGUCACGUCUCAAUCAACUCAAUCCCAGGAGUUUACUCCUGUAAUCUCAACAGCUCGCAGUCAAG	0.159
GGUCACGUCUCAAUCAACUCAACUUCAGGAGUUUCCUCCUGCUUAUUCAACAGCUCGCAGUCAAG	0.0602

Sequence	binding signal (log2 fold change)
GGUCACGUCUCAAUCAACUCUACUUCAGGAGUUUACUCCUGCUUACUCAACAGCUCGCAGUCAAG	-0.0627
GGUCACGUCUCAAUCAACUCAACUCCAGGAGUUUGCUCCUGCAUUUUCAACAGCUCGCAGUCAAG	0.187
GGUCACGUCUCAAUCAACUCAUCCCCCAGGGAAACCCCUGGUUAUCUCAACAGCUCGCAGUCAAG	0.0283
GGUCACGUCUCAAUCAACUCAUCGCCAGGAGUUUUCUCCUGCAUUUUCAACAGCUCGCAGUCAAG	-0.0451
GGUCACGUCUCAAUCAACUCAAUCCCAGGAGUUUGCUCCUGCUUUUUCAACAGCUCGCAGUCAAG	-0.178
GGUCACGUCUCAAUCAACUCCUUCGAGGGGGGGAAAACCCCUUUACCCUCUCAUUCAACAGCUCGCAGUCAAG	-0.294
GGUCACGUCUCAAUCAACUCUUUCGCAGGAGUUUCCUCCUGGUAUUUCAACAGCUCGCAGUCAAG	0.117
GGUCACGUCUCAAUCAACUCAUUCUCCAGGGAAAUCCCUGGCAAAUUCAACAGCUCGCAGUCAAG	-0.149
GGUCACGUCUCAAUCAACUCAUCCCCAGGAGUUUGCUCCUGCUUAUUCAACAGCUCGCAGUCAAG	-0.00931
GGUCACGUCUCAAUCAACUCAUUCUCAGGAGUUUCCUCCUGUAAUUUCAACAGCUCGCAGUCAAG	0.174
GGUCACGUCUCAAUCAACUCAACUUCAGGAGUUUUCUCCUGCUUUUUCAACAGCUCGCAGUCAAG	0.0958
GGUCACGUCUCAAUCAACUCUAUCUCAGGAGUUUUCUCCUGUUUAUUCAACAGCUCGCAGUCAAG	0.0833
GGUCACGUCUCAAUCAACUCUUCUUCAGGAGUUUCCUCCUGCAUAUUCAACAGCUCGCAGUCAAG	0.0796
GGUCACGUCUCAAUCAACUCUUUCUCAGGAGUUUUCUCCUGCUUUUUCAACAGCUCGCAGUCAAG	-0.0995
GGUCACGUCUCAAUCAACUCAACUCCCAGGGAAACCCCUGGUUAAUUCAACAGCUCGCAGUCAAG	0.0188
GGUCACGUCUCAAUCAACUCUUUCCCCAGGGAAAUCCCUGGCUAUCUCAACAGCUCGCAGUCAAG	0.154
GGUCACGUCUCAAUCAACUCAGUCUCAGGAGUUUGCUCCUGCUUUUUCAACAGCUCGCAGUCAAG	0.00409
GGUCACGUCUCAAUCAACUCAGAAGAGGGGGGGAAAACCCCUUUACCCUCAUAAUCAACAGCUCGCAGUCAAG	-0.233
GGUCACGUCUCAAUCAACUCUUCGCCAGGAGUUUCCUCCUGUAAUCUCAACAGCUCGCAGUCAAG	0.143
GGUCACGUCUCAAUCAACUCUACUUCCAGGGAAAACCCUGGCUUUCUCAACAGCUCGCAGUCAAG	-0.16
GGUCACGUCUCAAUCAACUCAUCAGAGGGGGGGAAAACCCCUUUACCCUCAUUCUCAACAGCUCGCAGUCAAG	-0.205
GGUCACGUCUCAAUCAACUCAAACGAGGGGGGGAAAACCCCUUUACCCUCUAUAUCAACAGCUCGCAGUCAAG	-0.304
GGUCACGUCUCAAUCAACUCUACUUCAGGAGUUUUCUCCUGUAAAUUCAACAGCUCGCAGUCAAG	0.0808
GGUCACGUCUCAAUCAACUCAUUUCCAGGAGUUUUCUCCUGCAAACUCAACAGCUCGCAGUCAAG	0.00373
